Experimental data: paper PMC4336329 (PLoS ONE, 2015)
In all, about 310,000 compounds went through this assay and about 2,200 (0.71%) showed an effect of 50% or more. The effect is printed as a negative number. Some of the results follow.

These molecules were tested against human ether-à-go-go-related gene (hERG) potassium channel (human, UniProt Q12809) (assay: primary screen, population patch clamp on CHO cells stably expressing hERG).
human ether-à-go-go-related gene (hERG) potassium channel, sequence (Q12809 whole entry, looked up): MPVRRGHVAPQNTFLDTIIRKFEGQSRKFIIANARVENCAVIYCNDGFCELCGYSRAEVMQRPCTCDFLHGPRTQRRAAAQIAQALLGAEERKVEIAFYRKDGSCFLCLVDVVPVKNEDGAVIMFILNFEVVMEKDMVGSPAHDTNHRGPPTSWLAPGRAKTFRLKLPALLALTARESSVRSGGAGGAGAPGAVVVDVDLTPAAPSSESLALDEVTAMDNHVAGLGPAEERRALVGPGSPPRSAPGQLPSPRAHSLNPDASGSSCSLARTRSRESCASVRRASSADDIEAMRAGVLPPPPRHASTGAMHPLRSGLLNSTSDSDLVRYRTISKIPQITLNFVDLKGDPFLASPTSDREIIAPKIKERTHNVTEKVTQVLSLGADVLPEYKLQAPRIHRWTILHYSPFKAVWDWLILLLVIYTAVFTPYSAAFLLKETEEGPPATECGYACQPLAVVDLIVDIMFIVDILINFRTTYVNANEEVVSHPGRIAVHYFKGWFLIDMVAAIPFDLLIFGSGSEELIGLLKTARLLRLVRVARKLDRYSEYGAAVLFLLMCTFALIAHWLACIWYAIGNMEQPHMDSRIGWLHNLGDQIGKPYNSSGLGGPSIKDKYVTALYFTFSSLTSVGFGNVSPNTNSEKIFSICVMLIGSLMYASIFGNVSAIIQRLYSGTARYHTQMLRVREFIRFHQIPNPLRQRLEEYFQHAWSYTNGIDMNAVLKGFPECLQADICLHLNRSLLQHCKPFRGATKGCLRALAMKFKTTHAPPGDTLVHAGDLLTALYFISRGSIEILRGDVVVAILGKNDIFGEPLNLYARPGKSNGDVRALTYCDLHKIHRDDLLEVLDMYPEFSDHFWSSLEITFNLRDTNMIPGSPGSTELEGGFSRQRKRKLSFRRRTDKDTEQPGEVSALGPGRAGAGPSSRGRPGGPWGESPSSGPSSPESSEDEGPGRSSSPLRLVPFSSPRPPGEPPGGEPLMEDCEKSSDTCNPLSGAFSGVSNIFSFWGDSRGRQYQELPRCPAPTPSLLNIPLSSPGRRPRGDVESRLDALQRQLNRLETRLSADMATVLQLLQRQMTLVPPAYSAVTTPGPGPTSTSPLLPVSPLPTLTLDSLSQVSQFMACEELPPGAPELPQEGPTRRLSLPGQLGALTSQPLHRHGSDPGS

| Compound | hERG current change (%, negative = inhibition) at 1uM [%] |
| --- | --- |
| CCOC(=O)c1c(N)sc(C(=O)N2CCCC2)c1C | 7.35 |
| O=[N+]([O-])c1ccc2nc(NS(=O)(=O)c3ccc(F)cc3)sc2c1 | 23.5 |
| COc1cc(/C=C(\C#N)C(=O)NC(C)C)cc(Cl)c1O | 5.3 |
| Cc1c(Cl)cccc1NC(=S)N(C)CCC#N | 14.3 |
| O=C(c1cc2ccccc2oc1=O)N(Cc1ccccc1F)C1CCS(=O)(=O)C1 (stereo not drawn) | 6.28 |
| Cc1ccc(NC(=O)CSc2nc3ccccc3nc2N2CCOCC2)c(C)c1 | 12.5 |
| O=S(=O)(NCCCc1ccccc1)c1ccccc1 | 10.3 |
| CCNC(=S)NNC(=O)c1cc(C)on1 | -2.59 |
| CCc1nn2c(=O)cc(COc3ccc(/C=C4\C(=N)N5N=C(CC(C)C)SC5=NC4=O)cc3)nc2s1 | 4.08 |
| CN(CCO)CC(O)Cn1cnc2c1c(=O)n(C)c(=O)n2C.O=C(O)c1cccnc1 (stereo not drawn) | 11.7 |
| COc1ccccc1N1C(=O)C2CC(C)=C(C)CC2C1=O (stereo not drawn) | 8.09 |
| CC1CN(C(=O)COc2ncnc3ccccc23)CC(C)O1 (stereo not drawn) | 16.9 |
| COc1ccc(C(=O)C2CCCN(C(=O)c3cc(C(C)C)no3)C2)cc1F (stereo not drawn) | -4.78 |
| CCn1c(SCC(=O)N2CCOCC2)nc2sc3c(c2c1=O)CCCC3 | 9.72 |
| CC(C)CN(C(=O)CSc1nc(-c2ccccc2)cn1N)c1c(N)n(Cc2ccccc2)c(=O)[nH]c1=O | 9.84 |
| CCn1c(O)c(C=NCCN2CCOCC2)c(=O)[nH]c1=S | 9.3 |
| CCN(CC)S(=O)(=O)c1cccc(C(=O)N[C@H](C(=O)O)C(C)C)c1 | 7.69 |
| O=C(Nc1ccc2c(c1)OCCO2)c1ccc2nccnc2c1 | 10.1 |
| CN(C)CCOC(=O)NC12CC3CC(CC(C3)C1)C2.Cl | 4.92 |

| Compound | hERG current change (%, negative = inhibition) at 1uM [%] |
| --- | --- |
| N#CCC(=O)N/N=C/c1cc(Br)ccc1OCc1cccc2ccccc12 | 8.94 |
| Cc1cccc(NC(=O)CSc2nc3ccc(NC(=O)CSc4nnnn4-c4ccccc4)cc3s2)c1C | 7.86 |
| O=C(Nc1ccc(Cl)cc1Cl)Nn1cnnc1 | 5.21 |
| CC(=O)OC1c2ccccc2C(=O)N1c1ccccc1C (stereo not drawn) | 1.81 |
| C=CCOc1ccnc(-c2ccccc2)n1 | 13.8 |
| OC(CN1CCOCC1)Cn1c2ccccc2c2ccccc21 (stereo not drawn) | 11.5 |
| COc1ccc(OC)c(/C=N\NC(=O)CSc2nnc(CCCc3ccc(OC)c(C)c3)o2)c1 | 9.34 |
| CCOC(=O)N1CCN(C(=O)C2CCN(S(=O)(=O)c3cc(Cl)ccc3OCC)CC2)CC1 | -11.7 |
| O=C(CSc1nnc2scc(-c3ccccc3)n12)Nc1nsc(-c2ccccc2)n1 | -14.9 |
| COC(=O)c1cc(=O)n(Cc2ccc3c(c2)OCO3)c(=Nc2ccc(F)cc2)s1 | 16.2 |
| COc1ccc(CCNC2CC(=O)N(N(C)C)C2=O)cc1OC (stereo not drawn) | 14.5 |
| Cc1cc(C)c(NC(=O)c2cc3c(nc4sccn43)s2)c(C)c1 | 10.5 |
| COc1ccc(CC(=O)N2CC(C)CC(C)C2)cc1 (stereo not drawn) | 1.74 |
| COc1ccc(NC(=O)CSc2ccc3ccccc3c2)cc1S(=O)(=O)N1CCCCC1 | 13.5 |
| Cc1ccc2c(c1)c(C)c(C)n2CC(O)CN1CCCCC1C (stereo not drawn) | -2.3 |
| Cc1ccc(CNC(=O)CCC2CCCN(Cc3cccc4ncccc34)C2)o1 (stereo not drawn) | 4.33 |
| COc1ccc(S(=O)(=O)N2CCOCC2)cc1NC(=O)CSc1ccccc1 | -6.94 |
| O=C(Nc1cccc(-c2cscn2)c1)C1CCN(Cc2ccc(CO)o2)CC1 | 7.16 |
| Cc1ccc(NN2C(=O)C=C(c3ccc(Cl)cc3)C2=O)cc1 | 12.8 |

| Compound | hERG current change (%, negative = inhibition) at 1uM [%] |
| --- | --- |
| Cc1cc(C)nc(-n2ncc3c2CCCC3=O)n1 | 14 |
| O=C(CCC1CCCN(c2ncccn2)C1)N1CCN(c2ccccn2)CC1 (stereo not drawn) | -0.0423 |
| Cc1nc2c(=O)oc3ccccc3c2n1-c1ccccc1 | 6.98 |
| CNc1cc(CS(=O)c2ccccc2)nc(-c2ccccc2)n1 (stereo not drawn) | 15.4 |
| CCn1cc(C(=O)NCCC2=CCCCC2)c(=O)c2cc(S(=O)(=O)N(C)C)ccc21 | -5.95 |
| O=C(NCc1ccccn1)C1CCCN(Cc2cnn(-c3ccccc3)c2-n2cccc2)C1 (stereo not drawn) | -0.433 |
| Cc1nn2cnnc2c(C)c1Cc1c(F)cccc1Cl | 7.19 |
| COc1cccc(CNC(=O)CCC2CCCN(C(=O)C3CCOCC3)C2)c1 (stereo not drawn) | 3.23 |
| Cc1ccc(S(=O)(=O)NC(=O)COc2ccccc2C)cc1 | 15.8 |
| COCCNC(=O)c1cccc(OC2CCN(Cc3ccc(F)c(OC)c3)CC2)c1 | 4.26 |
| CCC(=O)N1CCc2cc(S(=O)(=O)CCC(=O)Nc3ccc(OC)c(OC)c3)ccc21 | 12.4 |
| Cc1ccccc1C(=O)Nc1ccc(O)cc1C(=O)O | 8.33 |
| Cc1ccc(-c2cc(C(F)F)n3ncc(C(=O)Nc4c(C)nn(Cc5ccccc5Cl)c4C)c3n2)cc1 | 9.38 |
| C/C(C=O)=C/c1ccccc1 | 9.01 |
| Cc1c(C)c2ccc(OCC(=O)N[C@@H](Cc3c[nH]c4ccccc34)C(=O)O)cc2oc1=O | 7.31 |
| COc1ccc(/C=N/N2CCOCC2)cc1Cn1cc([N+](=O)[O-])cn1 | 9.4 |
| CC(OC(=O)CCC(=O)c1ccc(F)cc1)C(=O)NC1CCCCC1C (stereo not drawn) | 12.7 |
| O=C(Cn1c(=O)n(Cc2ccc3c(c2)OCO3)c(=O)c2ccccc21)N1CCCc2ccccc21 | 9.38 |
| CN(CC(=O)Nc1ccc(Cl)cc1)C(=O)CCNC(=O)c1ccc(Cl)cc1 | -14.3 |
